Here are results for 28 molecules from the antibiotic and cytotoxicity screens of Wong et al. (2023).

In assay [1] the test system is HSkMC (human skeletal muscle cells). The assay can be described thus: cytotoxicity call (relative viability < 0.9). To be noted: 10 µM.
In assay [2] the test system is HepG2. The assay is described as follows: cytotoxicity call (relative viability < 0.9). To be noted: 10 µM.
For assay [3], the system named is S. aureus RN4220. The assay is described as follows: growth inhibition call (relative growth <= 0.2). To be noted: 50 µM.

The list shows a part of the results.

For `COc1ccc(CCNC(=O)[C@@]2(Cc3ccccc3I)c3ccccc3C(=O)N(Cc3ccccc3OC)[C@H]2c2ccc(CO)cc2)cc1`, the cytotoxicity call in assay [1] and in assay [2] was “inactive” throughout. Besides, the growth inhibition call in assay [3] was “inactive”.
`C[C@@H]1CN([C@@H](C)CO)C(=O)c2cc(NS(=O)(=O)c3ccc(F)cc3)ccc2O[C@@H]1CN(C)Cc1ccc(-c2ccccc2)cc1`: the cytotoxicity call in assay [1] and in assay [2] was “active” in each case. Besides, the growth inhibition call in assay [3] is “inactive”.
`COc1ccc(NC(=O)N(C)C[C@@H]2Oc3ccc(NC(=O)Nc4cccc5ccccc45)cc3C(=O)N([C@H](C)CO)C[C@H]2C)cc1`: the cytotoxicity call in assay [1] and in assay [2] was “inactive” each time. The growth inhibition call in assay [3] was “inactive”.
On to `C[C@@H]1CCCCO[C@H](CN(C)Cc2ccc(Cl)c(Cl)c2)[C@@H](C)CN([C@@H](C)CO)C(=O)c2cc(NS(=O)(=O)c3cn(C)cn3)ccc2O1`, for which the cytotoxicity call in assay [1] and in assay [2] was “inactive” each time. For the same molecule, the growth inhibition call in assay [3] is “inactive”.
Regarding `COc1ccc(-c2cnc3c(c2)C(=O)N([C@H](C)CO)C[C@H](C)[C@H](CN(C)S(=O)(=O)c2ccc(OC)cc2)O3)cc1`, the cytotoxicity call in assay [1] and in assay [2] was “inactive” throughout. Moreover, in assay [3], the growth inhibition call is “inactive”.
In the case of `CC(=O)OCO/N=[N+](\[O-])N1CCCC1`, the cytotoxicity call in assay [1] and in assay [2] was “inactive” throughout. In addition, the growth inhibition call in assay [3] was “inactive”.
Take `Cc1c(O[C@@H]2O[C@H](COC(=O)C[C@@](C)(O)CC(=O)O)C[C@H](O)[C@H]2O)occc1=O`: the cytotoxicity call in assay [1] and in assay [2] was “inactive” each time. The growth inhibition call in assay [3] was “inactive”.
Regarding `Cc1noc(C)c1S(=O)(=O)Nc1ccc2c(c1)C(=O)N([C@H](C)CO)C[C@H](C)[C@H](CN(C)CC1CCCCC1)OCCCC[C@H](C)O2`, the cytotoxicity call in assay [1] and in assay [2] was “inactive” each time. Moreover, the growth inhibition call in assay [3] was “inactive”.
As to `O=C(CCCN1CCC(O)(c2ccc(Br)cc2)CC1)c1ccc(F)cc1`, the cytotoxicity call in assay [1] was “inactive”. Also, the cytotoxicity call in assay [2] is “active”. Also, in assay [3], the growth inhibition call was “inactive”.
For `Cc1noc(C)c1NC(=O)Nc1ccc2c(c1)C(=O)N([C@H](C)CO)C[C@@H](C)[C@@H](CN(C)Cc1ccncc1)OCCCC[C@@H](C)O2`, the cytotoxicity call in assay [1] and in assay [2] was “inactive” each time. Also, in assay [3], the growth inhibition call was “inactive”.
On to `C[C@@H]1CN([C@H](C)CO)C(=O)c2cccc(NC(=O)C3CCOCC3)c2O[C@H]1CN(C)Cc1ccc(-c2ccccc2)cc1`, for which the cytotoxicity call in assay [1] and in assay [2] was “inactive” each time. For the same molecule, the growth inhibition call in assay [3] was “inactive”.
Turning to `C[C@H](CO)N1C[C@H](C)[C@H](CN(C)S(=O)(=O)c2ccc(F)cc2)OCCCC[C@H](C)Oc2ccc(NC(=O)C3CCCCC3)cc2C1=O`, the cytotoxicity call in assay [1] and in assay [2] was “inactive” throughout. The growth inhibition call in assay [3] is “inactive”.
As for `C[C@@H]1CCCCO[C@H](CN(C)C(=O)Cc2ccccc2)[C@@H](C)CN([C@H](C)CO)C(=O)c2cc(NC(=O)c3ccccc3)ccc2O1`, the cytotoxicity call in assay [1] and in assay [2] was “inactive” each time. For the same molecule, in assay [3], the growth inhibition call was “inactive”.
Turning to `C[C@H](CO)N1C[C@H](C)[C@H](CN(C)C(=O)NC2CCCCC2)OCCCC[C@H](C)Oc2ccc(NS(=O)(=O)c3ccc(Cl)cc3)cc2C1=O`, the cytotoxicity call in assay [1] and in assay [2] was “inactive” throughout. The growth inhibition call in assay [3] is “inactive”.
Regarding `CS(=O)(=O)SCCN`, the cytotoxicity call in assay [1] and in assay [2] was “inactive” throughout. For the same molecule, the growth inhibition call in assay [3] is “inactive”.
Consider `Cc1ccc(S(=O)(=O)N(C)C[C@@H]2Oc3ncc(-c4ccncc4)cc3C(=O)N([C@H](C)CO)C[C@H]2C)cc1`, for which the cytotoxicity call in assay [1] and in assay [2] was “inactive” throughout. The growth inhibition call in assay [3] is “inactive”.
Regarding `C[C@@H]1CN([C@@H](C)CO)C(=O)Cc2cc(NS(=O)(=O)c3ccccc3)ccc2O[C@@H]1CN(C)S(=O)(=O)c1cccs1`, the cytotoxicity call in assay [1] and in assay [2] was “inactive” each time. Also, the growth inhibition call in assay [3] is “inactive”.
For the molecule `COC1OC2OC3(C)CCC4C(C)CCC(C1C)C24OO3` (centres undefined), the cytotoxicity call in assay [1] and in assay [2] was “inactive” each time. Besides, the growth inhibition call in assay [3] was “inactive”.
With `COc1ccc(C(C)(C)N)cc1OC`, the cytotoxicity call in assay [1] and in assay [2] was “inactive” in each case. In addition, in assay [3], the growth inhibition call was “inactive”.
For the molecule `C[C@@H]1CCCCO[C@H](CN(C)Cc2ccc3c(c2)OCO3)[C@@H](C)CN([C@@H](C)CO)C(=O)c2cc(NC(=O)Nc3cccc4ccccc34)ccc2O1`, in assay [1], the cytotoxicity call was “inactive”. The cytotoxicity call in assay [2] was “active”. The growth inhibition call in assay [3] is “inactive”.
As to `OCc1ccccc1O[C@@H]1O[C@H](CO)[C@@H](O)[C@H](O)[C@H]1O`, the cytotoxicity call in assay [1] and in assay [2] was “inactive” each time. Besides, in assay [3], the growth inhibition call is “inactive”.
For `CCC[C@@H](O)C#Cc1cnc2c(c1)C(=O)N([C@H](C)CO)C[C@H](C)[C@H](CN(C)Cc1ccc3c(c1)OCO3)O2`, the cytotoxicity call in assay [1] and in assay [2] was “inactive” in each case. Further, in assay [3], the growth inhibition call was “inactive”.
As to `CC(=O)NC(=O)N[C@H]1CSC[C@@H]1OC(C)=O`, the cytotoxicity call in assay [1] and in assay [2] was “inactive” in each case. The growth inhibition call in assay [3] was “inactive”.
Take `N#CCn1ccccc1=O`: the cytotoxicity call in assay [1] and in assay [2] was “inactive” in each case. Moreover, in assay [3], the growth inhibition call was “inactive”.
Turning to `C[C@@H]1CN([C@@H](C)CO)C(=O)c2cc(NS(C)(=O)=O)ccc2O[C@H]1CN(C)C(=O)Nc1ccc(C(F)(F)F)cc1`, the cytotoxicity call in assay [1] and in assay [2] was “inactive” in each case. For the same molecule, in assay [3], the growth inhibition call was “inactive”.
For the molecule `C[C@@H]1CN([C@H](C)CO)C(=O)c2cc(NS(=O)(=O)c3ccc(F)cc3)ccc2O[C@@H](C)CCCCO[C@H]1CN(C)C(=O)Nc1ccc(F)cc1`, the cytotoxicity call in assay [1] and in assay [2] was “inactive” each time. Also, the growth inhibition call in assay [3] is “inactive”.
With `C[C@@H]1CN([C@H](C)CO)C(=O)Cc2cc(NC(=O)Nc3cccc4ccccc34)ccc2O[C@@H]1CN(C)Cc1ccc(Cl)c(Cl)c1`, the cytotoxicity call in assay [1] was “inactive”. The cytotoxicity call in assay [2] was “active”. Further, the growth inhibition call in assay [3] was “inactive”.
For the molecule `C[C@H](CO)N1C[C@H](C)[C@H](CN(C)C(=O)Nc2cccc3ccccc23)Oc2ccc(NC(=O)C3CCCCC3)cc2C1=O`, the cytotoxicity call in assay [1] and in assay [2] was “inactive” each time. Moreover, the growth inhibition call in assay [3] was “inactive”.
